# The other results are listed elsewhere or left out.
# What was measured:
# Assay in all cases: glycan array binding signal (z-score within array); higher = stronger binding
# Conditions in all cases: glycan notation: IUPAC condensed, linker removed
# Gal3S(b1-4)Glc6S = target: Gal3S(b1-4)Glc6S
# Outline: (§1)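 The binding signal is a Z-score computed within each array and averaged over linkers. Arrays of the same protein sequence at different concentrations or buffers were also averaged together. Data originate from 3228 arrays in the Consortium for Functional Glycomics database, kept only where the protein sequence was available.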
# Gal3S(b1-4)GlcNAc = target: Gal3S(b1-4)GlcNAc
# Outline: as §1
# [1] = target: Gal3S(b1-4)GlcNAc(b1-3)Gal
# Outline: as §1
# Gal3S(b1-4)GlcNAc6S = target: Gal3S(b1-4)GlcNAc6S
# Outline: as §1
# [2] = target: Gal3S(b1-4)[Fuc(a1-3)]Glc
# Outline: as §1
# [3] = target: Gal3S(b1-4)[Fuc(a1-3)]Glc6S
# Outline: as §1
# [4] = target: Gal3S(b1-4)[Fuc(a1-3)]GlcNAc
# Outline: as §1
# [5] = target: Gal3S(b1-4)[Fuc(a1-3)]GlcNAc6S
# Outline: as §1
# Gal3S4S(b1-4)GlcNAc = target: Gal3S4S(b1-4)GlcNAc
# Outline: as §1
# Gal3S6S(b1-4)GlcNAc = target: Gal3S6S(b1-4)GlcNAc
# Outline: as §1
# Gal3S6S(b1-4)GlcNAc6S = target: Gal3S6S(b1-4)GlcNAc6S
# Outline: as §1
# Gal4S(b1-4)GlcNAc = target: Gal4S(b1-4)GlcNAc
# Outline: as §1
# Gal4S6S(b1-4)GlcNAc = target: Gal4S6S(b1-4)GlcNAc
# Outline: as §1
# Gal6P(b1-4)GlcNAc = target: Gal6P(b1-4)GlcNAc
# Outline: as §1
# Gal6S(b1-3)GlcNAc = target: Gal6S(b1-3)GlcNAc
# Outline: as §1
# Gal6S(b1-3)GlcNAc6S = target: Gal6S(b1-3)GlcNAc6S
# Outline: as §1
# [6] = target: Gal6S(b1-3)[Fuc(a1-4)]GlcNAc(b1-3)Gal(b1-4)Glc
# Outline: as §1
# Gal6S(b1-4)Glc = target: Gal6S(b1-4)Glc
# Outline: as §1
# Gal6S(b1-4)Glc6S = target: Gal6S(b1-4)Glc6S
# Outline: as §1
# Gal6S(b1-4)GlcNAc = target: Gal6S(b1-4)GlcNAc
# Outline: as §1
# Gal6S(b1-4)GlcNAc6S = target: Gal6S(b1-4)GlcNAc6S
# Outline: as §1
# GalNAc(a1-3)Gal = target: GalNAc(a1-3)Gal
# Outline: as §1
# GalNAc(a1-3)Gal(b1-4)Glc = target: GalNAc(a1-3)Gal(b1-4)Glc
# Outline: as §1
# GalNAc(a1-3)GalNAc = target: GalNAc(a1-3)GalNAc
# Outline: as §1
# [7] = target: GalNAc(a1-3)GalNAc(a1-3)Gal(a1-4)Gal(b1-4)GlcNAc
# Outline: as §1
# [8] = target: GalNAc(a1-3)GalNAc(b1-3)Gal(a1-4)Gal(b1-4)Glc
# Outline: as §1
# GalNAc(b1-3)Gal = target: GalNAc(b1-3)Gal
# Outline: as §1
# [9] = target: GalNAc(b1-3)Gal(a1-4)Gal(b1-4)GlcNAc
# Outline: as §1
# [10] = target: GalNAc(b1-3)Gal(a1-4)Gal(b1-4)GlcNAc(b1-3)Gal(b1-4)Glc
# Outline: as §1
# [11] = target: GalNAc(b1-3)Gal(a1-6)Gal(b1-4)Glc
# Outline: as §1
# GalNAc(b1-3)GalNAc = target: GalNAc(b1-3)GalNAc
# Outline: as §1
# GalNAc(b1-3)GlcNAc = target: GalNAc(b1-3)GlcNAc
# Outline: as §1
# GalNAc(b1-4)Gal(b1-4)Glc = target: GalNAc(b1-4)Gal(b1-4)Glc
# Outline: as §1
# [12] = target: GalNAc(b1-4)Gal3S(b1-4)Glc
# Outline: as §1
# GalNAc(b1-4)GlcNAc = target: GalNAc(b1-4)GlcNAc
# Outline: as §1
# [13] = target: GalNAc(b1-4)GlcNAc(b1-2)Man
# Outline: as §1
# [14] = target: GalNAc(b1-4)GlcNAc(b1-2)Man(a1-3)[GalNAc(b1-4)GlcNAc(b1-2)Man(a1-6)]Man(b1-4)GlcNAc(b1-4)GlcNAc
# Outline: as §1
binder,measurement,setting,value
"PNA (Arachis hypogaea), P02872 (protein) MKPFCVFLTFFLLLAASSKKVDSAETVSFNFNSFSEGNPAINFQGDVTVLSNGNIQLTNLNKVNSVGRVLYAMPVRIWSSATGNVASFLTSFSFEMKDIKDYDPADGIIFFIAPEDTQIPAGSIGGGTLGVSDTKGAGHFVGVEFDTYSNSEYNDPPTDHVGIDVNSVDSVKTVPWNSVSGAVVKVTVIYDSSTKTLSVAVTNDNGDITTIAQVVDLKAKLPERVKFGFSASGSLGGRQIHLIRSWSFTSTLITTTRRSIDNNEKKIMNMASA",glycan array binding signal (z-score),Gal3S(b1-4)Glc6S,-0.04
same,glycan array binding signal (z-score),Gal3S(b1-4)GlcNAc,-0.032
same,glycan array binding signal (z-score),[1],-0.195
same,glycan array binding signal (z-score),Gal3S(b1-4)GlcNAc6S,-0.063
same,glycan array binding signal (z-score),[2],-0.222
same,glycan array binding signal (z-score),[3],-0.025
same,glycan array binding signal (z-score),[4],-0.148
same,glycan array binding signal (z-score),[5],0.268
same,glycan array binding signal (z-score),Gal3S4S(b1-4)GlcNAc,-0.176
same,glycan array binding signal (z-score),Gal3S6S(b1-4)GlcNAc,-0.186
same,glycan array binding signal (z-score),Gal3S6S(b1-4)GlcNAc6S,-0.211
same,glycan array binding signal (z-score),Gal4S(b1-4)GlcNAc,-0.215
same,glycan array binding signal (z-score),Gal4S6S(b1-4)GlcNAc,-0.111
same,glycan array binding signal (z-score),Gal6P(b1-4)GlcNAc,-0.306
same,glycan array binding signal (z-score),Gal6S(b1-3)GlcNAc,-0.328
same,glycan array binding signal (z-score),Gal6S(b1-3)GlcNAc6S,-0.244
same,glycan array binding signal (z-score),[6],-0.195
same,glycan array binding signal (z-score),Gal6S(b1-4)Glc,-0.174
same,glycan array binding signal (z-score),Gal6S(b1-4)Glc6S,-0.108
same,glycan array binding signal (z-score),Gal6S(b1-4)GlcNAc,-0.234
same,glycan array binding signal (z-score),Gal6S(b1-4)GlcNAc6S,-0.15
same,glycan array binding signal (z-score),GalNAc(a1-3)Gal,-0.183
same,glycan array binding signal (z-score),GalNAc(a1-3)Gal(b1-4)Glc,-0.195
same,glycan array binding signal (z-score),GalNAc(a1-3)GalNAc,-0.155
same,glycan array binding signal (z-score),[7],-0.254
same,glycan array binding signal (z-score),[8],-0.194
same,glycan array binding signal (z-score),GalNAc(b1-3)Gal,-0.18
same,glycan array binding signal (z-score),[9],-0.197
same,glycan array binding signal (z-score),[10],-0.19
same,glycan array binding signal (z-score),[11],-0.119
same,glycan array binding signal (z-score),GalNAc(b1-3)GalNAc,-0.128
same,glycan array binding signal (z-score),GalNAc(b1-3)GlcNAc,-0.254
same,glycan array binding signal (z-score),GalNAc(b1-4)Gal(b1-4)Glc,-0.172
same,glycan array binding signal (z-score),[12],-0.195
same,glycan array binding signal (z-score),GalNAc(b1-4)GlcNAc,-0.059
same,glycan array binding signal (z-score),[13],-0.014
same,glycan array binding signal (z-score),[14],1.67

# — the supplement of paper PMC8728848
